According to the supplement of paper PMC3334620:
The full ranking holds about 33,000 sequences; the median of “E-score (-0.5 to 0.5)” is about -0.053, and the highest 2% start at about 0.37. The list shows a part of the results.

The sequences below were run against Hap1 (UniProt P0CE41) (assay: PBM E-score (8-mer binding enrichment) (E-score (-0.5 to 0.5)); higher = stronger / more preferred TF binding; most listed sequences are background and not binding sites). Settings: protein concentration: 200 nM; construct: GST-DNA-binding domain.
UniProt P0CE41, sequence (P0CE41 whole entry, the tested form may be a part): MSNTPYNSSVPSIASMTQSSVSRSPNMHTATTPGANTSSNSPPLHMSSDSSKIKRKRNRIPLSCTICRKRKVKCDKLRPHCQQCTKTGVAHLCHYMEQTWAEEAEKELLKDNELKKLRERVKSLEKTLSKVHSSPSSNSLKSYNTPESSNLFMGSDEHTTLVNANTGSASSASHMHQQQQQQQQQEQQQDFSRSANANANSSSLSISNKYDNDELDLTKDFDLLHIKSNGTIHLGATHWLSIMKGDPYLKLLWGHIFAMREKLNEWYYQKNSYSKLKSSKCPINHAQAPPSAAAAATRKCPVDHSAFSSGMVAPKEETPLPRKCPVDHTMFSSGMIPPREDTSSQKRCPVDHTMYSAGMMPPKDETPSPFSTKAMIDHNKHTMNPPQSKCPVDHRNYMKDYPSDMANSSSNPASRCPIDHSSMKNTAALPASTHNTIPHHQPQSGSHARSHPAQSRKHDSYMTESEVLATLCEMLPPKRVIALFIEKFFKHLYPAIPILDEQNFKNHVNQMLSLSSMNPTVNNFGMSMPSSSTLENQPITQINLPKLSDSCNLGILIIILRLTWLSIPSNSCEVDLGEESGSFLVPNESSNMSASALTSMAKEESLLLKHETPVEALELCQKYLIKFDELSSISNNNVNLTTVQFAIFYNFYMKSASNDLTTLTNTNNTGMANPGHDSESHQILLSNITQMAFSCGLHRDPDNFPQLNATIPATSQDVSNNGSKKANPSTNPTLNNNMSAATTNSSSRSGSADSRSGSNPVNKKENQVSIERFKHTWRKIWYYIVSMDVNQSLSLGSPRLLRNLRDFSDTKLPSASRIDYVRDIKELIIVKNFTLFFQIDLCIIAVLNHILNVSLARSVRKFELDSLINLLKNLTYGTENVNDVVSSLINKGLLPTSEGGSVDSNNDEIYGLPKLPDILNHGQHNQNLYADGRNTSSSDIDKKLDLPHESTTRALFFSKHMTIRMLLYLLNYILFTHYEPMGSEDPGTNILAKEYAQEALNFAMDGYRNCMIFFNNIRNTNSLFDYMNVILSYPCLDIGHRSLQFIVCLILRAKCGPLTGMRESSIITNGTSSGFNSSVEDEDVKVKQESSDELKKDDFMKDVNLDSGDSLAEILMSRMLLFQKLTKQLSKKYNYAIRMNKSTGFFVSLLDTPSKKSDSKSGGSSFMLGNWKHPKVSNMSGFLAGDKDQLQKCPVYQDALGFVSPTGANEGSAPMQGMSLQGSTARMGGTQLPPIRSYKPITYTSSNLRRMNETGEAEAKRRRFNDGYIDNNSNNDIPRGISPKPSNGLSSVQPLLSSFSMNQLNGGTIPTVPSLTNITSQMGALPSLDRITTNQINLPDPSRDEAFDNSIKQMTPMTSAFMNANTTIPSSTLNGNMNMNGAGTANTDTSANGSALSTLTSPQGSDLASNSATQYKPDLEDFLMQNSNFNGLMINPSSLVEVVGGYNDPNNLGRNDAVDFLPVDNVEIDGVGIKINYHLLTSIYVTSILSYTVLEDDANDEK
In short: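 Detection of bound protein used fluorescent anti-GST, with scans normalised by masliner. The proteins were GST-tagged yeast transcription factors applied at about 100-200 nM to universal all-10-mer Agilent arrays made double-stranded by primer extension. Each ungapped eight-base word, pooled with its reverse complement, was scored with an E-score from the Universal PBM Analysis Suite.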

| Sequence | PBM E-score |
| --- | --- |
| AGCTAAAC | -0.0747 |
| CGTCCTCC | 0.105 |
| CGTTATGA | 0.0887 |
| AGAGTCGA | -0.148 |
| CTGACGAA | -0.0966 |
| ATGGGATC | -0.013 |
| CCCCACCA | -0.135 |
| GACGCTAA | -0.0683 |
| GCACTGCA | -0.163 |
| AGTTGATA | -0.017 |
| AGTCACTC | -0.137 |
| GACTCACA | -0.203 |
| CTGAACAG | -0.123 |
| ACGCGAAA | -0.00838 |
| CTCGATCA | -0.0634 |
| ACAGGGCA | -0.242 |
| GTCTTATA | -0.121 |
| GGTATTCA | 0.0336 |
| AGCACTCC | -0.00182 |
| CACCTGTC | 0.109 |
| CAGATAAG | -0.108 |
| CTGGAACA | -0.129 |
| GCGCTGCA | -0.132 |
| GTCCCGCA | 0.124 |
| CGCGCTGC | -0.0325 |

| Sequence | PBM E-score |
| --- | --- |
| CCCGCTGC | 0.139 |
| GCAGGCGC | -0.0527 |
| ATTCGAAC | -0.191 |
| GCGCACGC | 0.0699 |
| TGGATGAA | -0.183 |
| CGCCCCCG | 0.237 |
| ACTTACGC | 0.196 |
| GACTCTGA | -0.083 |
| GTCGGGGA | 0.301 |
| AAGGCCCC | -0.0358 |
| ACTGTGTC | -0.0909 |
| AATTAGGG | 0.0466 |
| ACGAACAA | 0.111 |
| AGTGTAAC | -0.13 |
| CACGCACA | 0.0064 |
| GCCACACA | 0.0335 |
| GAAGAATA | -0.237 |
| CGGGGACG | 0.163 |
| AGGGAGCC | -0.167 |
| ACAATCAC | -0.0371 |
| CTGGCTAA | -0.183 |
| CAATGGTA | -0.146 |
| GACAATTA | 0.00249 |
| ACGAGGCG | -0.00909 |
| CCGAGGAG | 0.349 |

| Sequence | PBM E-score |
| --- | --- |
| CGGAGTAG | 0.324 |
| AGATAGCT | 0.0583 |
| AGTGTTTC | -0.205 |
| TGCTCACA | -0.342 |
| AGTTGAAC | -0.195 |
| ATACTCGG | 0.264 |
| AAGAATAC | -0.137 |
| CACGAACA | -0.113 |
| TCCTGGCA | -0.0869 |
| ATGTTTGA | -0.203 |
| GCGCTCCC | -0.254 |
| CGCCGGGA | 0.317 |
| CATGTATA | -0.235 |
| ATAACGTA | 0.175 |
| ATGCTGTG | -0.227 |
| TAAGAGCA | -0.077 |
| GCGAATCA | 0.077 |
| GCTTAGAC | -0.0848 |
| CCAAGGCC | -0.18 |
| ATGAGTGG | -0.152 |
| ACGCGCAT | -0.0842 |
| CAATAAAG | -0.0152 |
| CCCCTGGA | -0.205 |
| AGATATCC | 0.192 |
| AAATGATT | 0.194 |

| Sequence | PBM E-score |
| --- | --- |
| ATGTCAGA | -0.277 |
| CTACTGGA | 0.0203 |
| TCCGTGAA | 0.284 |
| ACGATCGC | -0.00383 |
| AGCGAACA | -0.0568 |
| AGGGACAA | 0.0169 |
| GTAAAGGA | -0.0862 |
| CACTTGAG | -0.256 |
| ACCCCCTA | -0.349 |
| GACCAGAA | -0.107 |
| GCGAGGCC | -0.00446 |
| ACCAACCG | 0.16 |
| GCCGGGCC | 0.221 |
| ACGAATAA | 0.0681 |
| GGGCCTTA | -0.0268 |
| AGGTCTCG | -0.0277 |
| GTTTCGAA | -0.219 |
| AGCCCCCA | -0.257 |
| TCCTTGCA | -0.114 |
| GTACGAAC | 0.172 |
| GCAGAACA | -0.0762 |
| AGCGTGAC | -0.162 |
| CTCTTCCC | -0.144 |
| CAGGAACC | -0.117 |
| CACGTCAA | -0.209 |

| Sequence | PBM E-score |
| --- | --- |
| ATATCCAT | -0.0163 |
| AGATCTAT | -0.127 |
| AATTGGTC | -0.00517 |
| AAGCTTGG | -0.263 |
| ACGCCATG | -0.261 |
| CGCTGGTA | -0.115 |
| AACCACCT | 0.0117 |
| AGGAGGAA | -0.218 |
| ACCCAAGT | -0.113 |
| AACTAGTC | -0.195 |
| ATACTGGG | 0.0868 |
| AACGATCG | 0.0439 |
| AGCCTAAT | -0.204 |
| AATATTAA | 0.0835 |
| ATATATGA | -0.0929 |
| CGGTCCAG | 0.176 |
| AACAACGC | -0.11 |
| ACGCTAGG | -0.299 |
| CTTTCGTA | -0.158 |
| GACGTACC | -0.0275 |
| GCCAGGCA | 0.0384 |
| ACGTCAAA | -0.217 |
| CACCCTTA | 0.0502 |
| GTATGATA | 0.00294 |
| GAAACTTC | 0.143 |

| Sequence | PBM E-score |
| --- | --- |
| ATCCGTCC | 0.207 |
| CGGGTACC | -0.0457 |
| ATTTCCAC | 0.149 |
| AGCTCTTG | -0.345 |
| ATTAAAGG | 0.0303 |
| AGTGCTGA | -0.188 |
| ACGGCGGC | 0.0766 |
| CCCTTACC | -0.145 |
| ACGAACCG | 0.117 |
| CCGCTAAA | 0.365 |
| CCCAGCCC | -0.174 |
| AAGTATCG | 0.201 |
| GGATCCAA | 0.178 |
| GGAACGTA | -0.124 |
| GCATTGCC | -0.0638 |
| CGCGGAAG | 0.181 |
| AATAGTTC | -0.0332 |
| ACCGGTGC | 0.309 |
| AATAACTC | 0.125 |
| AAGGCGGT | -0.226 |
| AGGCTAGG | -0.29 |
| TTGCACAA | -0.266 |
| CGATCATC | 0.186 |
| AGCATGTG | -0.177 |
| TACGCGAA | 0.0315 |

| Sequence | PBM E-score |
| --- | --- |
| CATGATGA | -0.217 |
| AGGTCTTG | -0.0988 |
| AAGGGGGA | -0.179 |
| ATTGTATA | 0.148 |
| TGGCAACA | -0.207 |
| CGGAGGAA | 0.375 |
| CAACAGGC | -0.212 |
| AATCCAGT | 0.219 |
| CCTTAGGA | -0.0943 |
| TATTTCAA | -0.255 |
| AGGGCCCC | -0.176 |
| TGAGCGCA | -0.178 |
| CGCCCAGA | -0.189 |
| ACCGTTTG | -0.0435 |
| AGGGGTCC | -0.117 |
| CCTGGCGA | -0.179 |
| AAAGTTGC | -0.198 |
| TACCGTCA | 0.108 |
| TAGCTCAA | -0.162 |
| CATTGGGC | -0.228 |
| ATCCTTCA | -0.199 |
| GACTTCAC | 0.069 |
